# ± gives the standard deviation of the averaged measurements. Over roughly 33,000 sequences, “E-score (dimensionless, -0.5 to 0.5)” has its median near -0.049; the highest 2% begin near 0.37. The list shows a part of the results.
# Test system: T1, PmTbr T-box DNA-binding domain (GST fusion)
# T1 sequence: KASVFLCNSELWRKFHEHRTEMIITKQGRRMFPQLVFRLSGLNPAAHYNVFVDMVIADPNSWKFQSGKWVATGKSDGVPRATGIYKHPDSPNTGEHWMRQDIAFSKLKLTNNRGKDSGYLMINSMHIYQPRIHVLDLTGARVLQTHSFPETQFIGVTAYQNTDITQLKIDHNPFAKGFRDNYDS
# Assay: PBM E-score of 8-mer (E-score (dimensionless, -0.5 to 0.5)); Tbr is Tbrain of the sea star Patiria miniata (Pm) or the sea urchin Strongylocentrotus purpuratus (Sp); higher = stronger binding preference; most listed sequences are background and not binding sites
# Conditions: the construct has about 5 more residues each side
# Method in brief: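 GST-fused Tbr T-box DNA-binding domains (the whole T-box plus about five flanking residues) were expressed in BL21 E. coli at 20 °C and purified by glutathione affinity chromatography. Universal Agilent oligonucleotide arrays were made double-stranded by primer extension, incubated with 200 nM protein in PBS (pH 7.5), then scanned and quantified. Every ungapped 8-mer was scored from probe intensities. The Universal PBM Analysis Suite gave each word an enrichment E-score, averaged over duplicate arrays.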
row,Sequence,PBM E-score of 8-mer
1,CGGTCGTC,-0.0636 ± 0.08
2,ACCATGGT,0.17 ± 0.025
3,CCCCTTTA,-0.201 ± 0.056
4,ACTCTGAG,-0.134 ± 0.095
5,GAGAACCA,-0.0255 ± 0.022
6,CCCCCACC,-0.148 ± 0.06
7,ATACTCTC,-0.141 ± 0.013
8,CACGGGAA,0.0515 ± 0.031
9,CCCAGACG,-0.162 ± 0.1
10,ATCTCTTG,-0.0373 ± 0.013
11,CTCCCATA,-0.14 ± 0.072
12,GCTACGCC,0.032 ± 0.048
13,GAGGGAAA,-0.196 ± 0.067
14,AGGGCACT,-0.1804 ± 0.00059
15,CCGTAACC,0.0443 ± 0.0046
16,ATTGCAGA,-0.0687 ± 0.049
17,ACAGCCAC,-0.0183 ± 0.066
18,CACCCTGG,0.253 ± 0.08
19,CCTCATGC,-0.102 ± 0.091
20,ATCGTCCG,-0.196 ± 0.014
21,AAATTCAT,-0.157 ± 0.063
22,ACTTCATG,-0.0177 ± 0.065
23,CACCCGTA,0.202 ± 0.011
24,CCGCGAAC,0.271 ± 0.036
25,AACAGTTA,0.165 ± 0.043

row,Sequence,PBM E-score of 8-mer
1,AGAGGAGC,-0.124 ± 0.0083
2,ACGCGCCG,0.232 ± 0.0031
3,AATCCATG,-0.185 ± 0.1
4,GGACCACA,-0.166 ± 0.12
5,CGTTTTAG,-0.000705 ± 0.021
6,ACGAAGTA,-0.0809 ± 0.039
7,GCTCAGGA,-0.2193 ± 0.0013
8,AAAGTGTT,0.429 ± 0.014
9,GGACTGTA,-0.252 ± 0.022
10,CGGCAAAC,-0.0247 ± 0.012
11,ACATCGCT,0.0475 ± 0.034
12,ACTCGGGG,-0.196 ± 0.035
13,AGGTTCCA,-0.0212 ± 0.0022
14,AGGCAGAT,-0.0961 ± 0.0082
15,AATGCGGT,-0.168 ± 0.015
16,CCTCCAGA,-0.00215 ± 0.052
17,ATCATTGG,0.0259 ± 0.051
18,CATCCCTC,-0.135 ± 0.0047
19,GGAGTCCA,-0.207 ± 0.0052
20,TAATTAAA,-0.18 ± 0.074
21,TAAATGCA,-0.178 ± 0.13
22,TAATCGCA,0.148 ± 0.03
23,AGTCAGAG,-0.339 ± 0.058
24,AAGAGAAG,0.0141 ± 0.00086
25,AGCGTTGC,0.0297 ± 0.028

row,Sequence,PBM E-score of 8-mer
1,CAACGGCG,0.11 ± 0.0042
2,AGTGTTGC,0.3558 ± 0.0028
3,ACTCCGCC,-0.102 ± 0.013
4,ACTCACCC,0.139 ± 0.0059
5,TAGAACGA,-0.136 ± 0.028
6,ACGACAGG,0.0499 ± 0.026
7,AATATGTA,0.0104 ± 0.0099
8,AGGTTCGC,0.248 ± 0.012
9,TGAACGAA,-0.304 ± 0.0082
10,CAAGTGAA,0.0677 ± 0.11
11,ATACACCC,-0.0169 ± 0.0085
12,AAGCTTAC,-0.086 ± 0.0032
13,TCGGTGAA,-0.0692 ± 0.1
14,TAACATGA,0.0401 ± 0.069
15,CGCCCTGC,0.069 ± 0.091
16,GAGGGAGA,-0.0203 ± 0.021
17,AAAACCTC,-0.118 ± 0.063
18,CAGTGCTC,-0.0161 ± 0.07
19,ATTAAGCA,-0.171 ± 0.024
20,ACTGTGCA,-0.0802 ± 0.035
21,CGAGGTTA,0.0486 ± 0.017
22,CCTTTTTA,-0.04 ± 0.043
23,TGAGGCCA,-0.255 ± 0.015
24,CGTAAATC,0.103 ± 0.025
25,AGCCTACG,-0.0434 ± 0.012

row,Sequence,PBM E-score of 8-mer
1,CATTGGAC,-0.107 ± 0.047
2,AAGCGTAC,-0.0966 ± 0.052
3,AATCTATA,-0.213 ± 0.0055
4,ATAGGATG,-0.00958 ± 0.037
5,CGGGGTGA,0.277 ± 0.029
6,AGCGAGGC,0.0705 ± 0.012
7,CACGTACA,0.257 ± 0.021
8,AGTCCGCC,-0.179 ± 0.055
9,ATAGTAAG,-0.216 ± 0.029
10,GACTTCGA,0.0669 ± 0.019
11,GCGAGTTA,0.0998 ± 0.0044
12,CAGCTTCG,0.121 ± 0.039
13,GATTTAGA,-0.192 ± 0.055
14,CGCAACCG,0.17 ± 0.036
15,ATGTTGCA,0.0163 ± 0.0015
16,AAAGGTCA,-0.303 ± 0.043
17,GTGCCACA,0.259 ± 0.019
18,AGCGACGA,0.129 ± 0.017
19,TACCATAA,-0.0564 ± 0.0014
20,GGGACGAC,-0.126 ± 0.082
21,TACAATAA,-0.241 ± 0.084
22,GCCCAATA,-0.0859 ± 0.015
23,ATTGTCAC,0.427 ± 0.016
24,AGAGACCG,-0.164 ± 0.0055
25,CCTAACCA,-0.125 ± 0.011

row,Sequence,PBM E-score of 8-mer
1,TCACCAGA,0.174 ± 0.025
2,GGGTAGCA,0.157 ± 0.032
3,CCCCGCTA,0.124 ± 0.056
4,GGTCGTTA,0.0351 ± 0.049
5,CATCCGAA,-0.252 ± 0.026
6,CGGCCGTC,-0.0584 ± 0.014
7,CACTGCCC,0.0159 ± 0.00034
8,AGGCGGCG,0.0344 ± 0.081
9,AAAGCGGA,-0.131 ± 0.1
10,CATGGAGC,-0.297 ± 0.054
11,GCCGTATA,-0.185 ± 0.086
12,CTTGGAGC,-0.21 ± 0.0092
13,GCACCTCC,0.4324 ± 0.002
14,CGTTAAAA,0.0936 ± 0.087
15,ACTATCCC,-0.179 ± 0.054
16,CGGGTAAG,0.00428 ± 0.038
17,GGAACACA,0.108 ± 0.025
18,ACCCCCGG,-0.168 ± 0.024
19,AAGAGCGC,-0.188 ± 0.004
20,AGATGCGC,-0.00169 ± 0.016
21,ACAGTAGC,0.159 ± 0.066
22,GATTGCAA,-0.0176 ± 0.095
23,CGAACTAC,0.00516 ± 0.034
24,ACTATAAC,0.0344 ± 0.058
25,CTGAGAGC,-0.0868 ± 0.0072

row,Sequence,PBM E-score of 8-mer
1,AGAGGTCC,-0.0718 ± 0.013
2,ACGTAGAC,-0.0628 ± 0.036
3,GCCGACGA,-0.0411 ± 0.054
4,CGATTCGC,0.281 ± 0.0085
5,CCAAGAAG,-0.124 ± 0.048
6,CCGCATAA,-0.28809 ± 0.00013
7,CTTTCGTC,0.0821 ± 0.028
8,AAATCTTA,-0.0423 ± 0.077
9,CTGACATA,-0.05981 ± 1.4e-05
10,ACTATTCG,0.103 ± 0.053
11,CGGCACTA,0.00605 ± 0.046
12,ACCGAGCC,-0.175 ± 0.13
13,TACTAGGA,-0.228 ± 0.11
14,CCAATCGG,-0.216 ± 0.075
15,AGGACACT,-0.0839 ± 0.015
16,GACGAGAA,0.12 ± 0.04
17,GGCGCACA,0.0331 ± 0.1
18,AGAAAAGC,-0.161 ± 0.077
19,CGTAAAGC,-0.205 ± 0.0048
20,TAATATCA,-0.0503 ± 0.042
21,CTCATCCA,-0.0453 ± 0.03
22,TTGGGAAA,-0.102 ± 0.057
23,ATCTTACA,-0.0195 ± 0.057
24,CCCGGTAG,0.0416 ± 0.02
25,CGGGTTAC,-0.184 ± 0.048

row,Sequence,PBM E-score of 8-mer
1,ACTTTGCT,0.0633 ± 0.06
2,GCGGATTA,-0.0286 ± 0.0014
3,TAAGGTAA,-0.114 ± 0.099
4,GCTGCAGC,0.0433 ± 0.051
5,ATCATTCA,-0.0769 ± 0.0057
6,AACGGATC,-0.0704 ± 0.012
7,CGATTAGC,-0.0317 ± 0.049
8,CGCTAGAG,0.0404 ± 0.048
9,CTTCAGGC,-0.176 ± 0.04
10,GGAACGAA,-0.118 ± 0.028
11,ACCCCTTA,0.0205 ± 0.031
12,GTGTAAGA,0.235 ± 0.05
13,CTACCGTC,-0.185 ± 0.037
14,CTAGAGAG,-0.118 ± 0.059
15,GAGGTGTA,0.44018 ± 0.00028
16,CAAGGGTG,0.355 ± 0.013
17,GCTTCGAA,-0.0301 ± 0.011
18,CTGCGCGA,0.135 ± 0.033
19,ATATGTGG,0.111 ± 0.081
20,AGACAACT,-0.113 ± 0.013
21,GCCTTTAA,-0.131 ± 0.053
22,AATTCGGC,-0.0658 ± 0.056
